{"source": "PubChem BioAssay AID624296", "about": "(National Center for Advancing Translational Sciences (NCATS), 2012)", "note": "About 9,900 (2.8%) of roughly 350,000 compounds were called active. Inconclusive results, whose numbers are uncertain, are shown with a selection of clear calls. Calls follow the shape of the dose curve; as a rule, active = well fitted activation curve with a large enough effect; inconclusive = small, poorly fitted or top-dose-only effect; inactive = no such curve, though single readings can be large or run the other way. Potencies of inconclusive entries are left out as doubtful fits. Potency is read from the fitted curve at half-maximal effect; tags tell the direction and shape of the fitted curve."}
{"assay": "A quantitative high throughput screen for small molecules that induce DNA re-replication in MCF 10a normal breast cells; also: nearly all actives have a fitted effect of over 50% in size.", "conditions": "MCF 10A DNA re-replication, Hoechst nuclear intensity, 48 h; series mostly up to 46.1 µM"}
{"compound": "CC(C)(C#CCN1CCCCC1)OCCOC(c1ccccc1)c1ccccc1", "Potency": "inconclusive [activator, partial curve, poor fit]"}
{"compound": "COc1ccc2nc3c(c(-c4ccccc4)c2c1)CCC3", "Potency": "inconclusive [activator, single point]"}
{"compound": "c1cc(-c2nnc3n2CCC3)[nH]n1", "Potency": "inconclusive [activator, full curve, poor fit]"}
{"compound": "COc1cccc(NC(=O)CSc2nc3ccccc3nc2N2CCCC2)c1", "Potency": "inconclusive [activator, single point]"}
{"compound": "C=CCn1c2ccccc2c(=O)c2cc(C#Cc3ccccn3)ccc21", "Potency": "inconclusive [activator, single point]"}
{"compound": "COc1ccc(-c2sc3ccc(OC)cc3c2-c2ccc(O)cc2)cc1", "Potency": "inconclusive [activator, single point]"}
{"compound": "CCOC(=O)CSc1nc2sc3c(c2c(=O)n1C1CCCCC1)CCN(C)C3", "Potency": "inconclusive [activator, partial curve]"}
{"compound": "CC(C)c1ccc(/C=N/n2c(-c3ccccc3)n[nH]c2=S)cc1", "Potency": "inactive"}
{"compound": "Cc1cc(C(=O)Nc2sc3c(c2C#N)CCC3)no1", "Potency": "active: 8.2 µM"}
{"compound": "COc1ccc(-c2oc3cc(OC(C)=O)cc(OC(C)=O)c3c(=O)c2OC)cc1", "Potency": "inconclusive [activator, single point]"}
{"compound": "CCn1nc(C)cc1C(=O)N1CCc2c([nH]c3ccccc23)C1c1cc(F)ccc1F", "note": "(stereo not drawn)", "Potency": "inconclusive [activator, single point]"}
{"compound": "CC(=NNC(=S)N1CCC1)c1ccccn1", "Potency": "inconclusive [activator, partial curve, poor fit]"}
{"compound": "CN(C)CC(=O)N1c2ccccc2Sc2ccc(Cl)cc21", "Potency": "inconclusive [activator, single point]"}
{"compound": "COc1ccccc1NC(=O)c1ccccc1SC", "Potency": "inactive"}
{"compound": "Cc1ccc2c(c1)n([O-])c1c([n+]2=O)CCCC1", "Potency": "inconclusive [activator, partial curve, poor fit]"}
{"compound": "CN(C)S(=O)(=O)c1cccc(-c2nnc(SCC(=O)NCCCCCC(=O)O)n2-c2ccc(F)cc2)c1", "Potency": "inconclusive [activator, single point]"}
{"compound": "O=C(COc1coc(CN2CCN(c3ccccc3)CC2)cc1=O)NCC1CCCO1", "note": "(stereo not drawn)", "Potency": "inconclusive [activator, single point]"}
{"compound": "O=C(Nc1ccccc1C(F)(F)F)C1CCN(C(=O)Cc2ccccc2)CC1", "Potency": "inactive"}
{"compound": "Cn1cccc1Cc1nnc(SCC(=O)Nc2ccc3c(c2)OCCO3)n1-c1ccc(F)cc1", "Potency": "inactive"}
{"compound": "CC(=O)N1CCCc2cc(S(=O)(=O)N3CCCC(C(=O)N4CCN(c5cccc(Cl)c5)CC4)C3)ccc21", "note": "(stereo not drawn)", "Potency": "inconclusive [activator, single point]"}
{"compound": "Cc1ccc(NC(=O)c2ccc3nsnc3c2)c(C)c1", "Potency": "inconclusive [activator, partial curve, poor fit]"}
{"compound": "O=C(CCN1C(=O)/C(=C\\c2ccccc2)SC1=S)N1CCCCC1", "Potency": "inconclusive [activator, full curve, poor fit]"}
{"compound": "CCCn1nc2cc(C(=O)NCCCCc3ccccc3)ccc2c1OCC", "Potency": "inconclusive [activator, single point]"}
{"compound": "CC[C@]12c3[nH]c4cc(-c5ccco5)ccc4c3CCN1C(=O)[C@@H](CC(=O)NC/C=C(\\C)CCC=C(C)C)C[C@@H]2C(=O)N1CCN(C(=O)C2CC2)CC1", "Potency": "inconclusive [activator, partial curve, poor fit]"}
{"compound": "CCOC(=O)N1CCN(C(=O)c2nn(-c3ccc(C)cc3)c(=O)c3c2c2ccccc2n3C)CC1", "Potency": "inconclusive [activator, single point]"}
{"compound": "O=C(c1cc(-c2ccc(F)cc2)nc2ccccc12)N1CCC1", "Potency": "inconclusive [activator, single point]"}
{"compound": "Cc1nc(Nc2ccc(O)cc2)c2c3c(sc2n1)CCCC3", "Potency": "inconclusive [activator, single point]"}
{"compound": "CCN(CC)c1ccc2nc3ccccc3[n+](CC)c2c1", "Potency": "active: 11.6 µM"}
{"compound": "CC1CCCN(C(=O)C2CCN(S(=O)(=O)c3cccc4nonc34)CC2)C1", "note": "(stereo not drawn)", "Potency": "inconclusive [activator, single point]"}
{"compound": "Cc1cccc(NC(=O)CN2CCN(C(=O)CN3C(=O)NC4(CC(C)CC(C)(C)C4)C3=O)CC2)c1C", "note": "(stereo not drawn)", "Potency": "inconclusive [activator, full curve, poor fit]"}
{"compound": "CCCCNc1c(-c2ccc(OC)c(SC(C)CC)c2)nc2cnccn12", "note": "(stereo not drawn)", "Potency": "inconclusive [activator, single point]"}
{"compound": "COc1ccc(N2CCN(c3oc(Cc4cccc5ccccc45)nc3C#N)CC2)cc1", "Potency": "inactive"}
{"compound": "CCC1=NN2C(=N)/C(=C\\c3cccn3-c3c(C)cccc3C)C(=O)N=C2S1", "Potency": "inconclusive [activator, single point]"}
{"compound": "N#Cc1ccccc1NC(=O)CNc1cc(S(=O)(=O)N2CCOCC2)ccc1NCC1CCCO1", "note": "(stereo not drawn)", "Potency": "inactive"}
{"compound": "Cc1ccc(-n2nnnc2SCc2nc3sc(C)c(C)c3c(=O)[nH]2)cc1", "Potency": "inactive"}
{"compound": "Cc1ccc(C(=O)NNC(=O)CSc2nnc3ccccn23)cc1", "Potency": "inactive"}
{"compound": "COc1ccc(CCNC(=O)C23CCC(C)(C(=O)C2Br)C3(C)C)cc1OC", "note": "(stereo not drawn)", "Potency": "inactive"}
{"compound": "Oc1ccc(/C=C/c2cnccn2)cc1", "Potency": "inconclusive [activator, single point]"}
{"compound": "CS(=O)(=O)N1CCc2cc(C(=O)N3CCN(c4cccc(Cl)c4)CC3)ccc21", "Potency": "inactive"}
{"compound": "C[C@H]1CN[C@H](CCO)/C1=C\\c1ccccc1", "Potency": "inactive"}
{"compound": "COc1ccc(-c2ccc3c(c2)c(C#Cc2ccsc2)c(-c2cc(OC)cc(OC)c2)n3C)cc1", "Potency": "inconclusive [activator, full curve, poor fit]"}
{"compound": "Cc1c(OCC(=O)N2C[C@H]3C[C@@H](C2)c2cccc(=O)n2C3)ccc2c3c(c(=O)oc12)CCC3", "Potency": "inconclusive [activator, single point]"}
{"compound": "CCN(CC)S(=O)(=O)c1ccc(N2CCCCC2)c(NC(=O)/C(C#N)=C/c2ccc(OC)cc2)c1", "Potency": "inactive"}
{"compound": "COc1ccc(CC2(CO)CCN(CC3=Cc4cc(Cl)ccc4OC3)CC2)cc1", "Potency": "active: 23.1 µM"}
{"compound": "CCOc1cc(/C=C(\\C#N)C(=O)Nc2cccc(C(=O)O)c2)cc(Br)c1OC(=O)c1ccc(OC)cc1", "Potency": "inconclusive [activator, single point]"}
{"compound": "COC(=O)c1sc(N)c(C(=O)OC)c1COC(=O)[C@@H](NS(=O)(=O)c1cccc(Cl)c1)C(C)C", "Potency": "inconclusive [activator, single point]"}
{"compound": "N#Cc1nc(-c2ccco2)oc1N1CCOCC1", "Potency": "inactive"}
{"compound": "Cc1cc(C)c(NC(=O)CN(C2CCCCC2)C2CCCCC2)c(C)c1", "Potency": "active: 3.66 µM"}
{"compound": "CCCSC1=C(C#N)C(c2ccc(OC)cc2)C2=C(CC(C)(C)CC2=O)N1", "note": "(stereo not drawn)", "Potency": "inconclusive [activator, partial curve, poor fit]"}
{"compound": "Cc1ccc(S(=O)(=O)NNC(=O)C(=O)NNc2ccccn2)cc1", "Potency": "inconclusive [activator, partial curve, poor fit]"}
{"compound": "Cc1nnc(N/N=C/c2cc([N+](=O)[O-])c(N3CCC(C)CC3)cc2N2CCC(C)CC2)n1N", "Potency": "inconclusive [activator, single point]"}
{"compound": "c1ccc2c(c1)CCN(C1=Nc3cccc4cccc1c34)C2", "Potency": "active: 8.2 µM"}
{"compound": "CC1Cc2cc(S(=O)(=O)N3CCC(C(N)=O)CC3)ccc2N1C(=O)C1CC1", "note": "(stereo not drawn)", "Potency": "inconclusive [activator, partial curve, poor fit]"}
{"compound": "COc1ccc(OCC(O)Cn2c(N3CCCCC3)nc3c2c(=O)n(C)c(=O)n3C)cc1", "note": "(stereo not drawn)", "Potency": "inactive"}
{"compound": "O=C(Nc1ccc2c(c1)OCO2)N1CCN(c2ccccc2Cl)CC1", "Potency": "inconclusive [activator, single point]"}
{"compound": "CCS(=O)(=O)c1ccc(C(=O)Nc2ccccc2OC)c(Cl)c1Cl", "Potency": "inactive"}
{"compound": "Cc1ccc(NC(=O)/C=C/c2ccco2)nc1", "Potency": "inconclusive [activator, full curve, poor fit]"}
{"compound": "CN(C(=O)COC(=O)c1cc(-c2ccc(Cl)s2)nc2ccccc12)C1CCS(=O)(=O)C1", "note": "(stereo not drawn)", "Potency": "inconclusive [activator, partial curve, poor fit]"}
{"compound": "CCOCCc1c(O)nc(SCCOc2ccc(C)c(C)c2)[nH]c1=O", "Potency": "inconclusive [activator, single point]"}
{"compound": "Cn1c(=O)cc(SCC(=O)NCCCN2CCN(c3ccc(F)cc3)CC2)c2ccccc21", "Potency": "inactive"}
{"compound": "Cc1ccc(C(=O)NCC(=O)NCCSc2ccc(Br)cc2)cc1", "Potency": "inactive"}
{"compound": "O=C(CSc1cccc2cccnc12)N/N=C/c1ccncc1", "Potency": "inactive"}
{"compound": "Cc1nn(-c2ccccc2)c(NC(=O)c2ccccc2)c1Br", "Potency": "inconclusive [activator, single point]"}
{"compound": "O=C(NCC1CCCO1)c1cccc2c1C(=O)c1ccc(N3CCC(Cc4ccccc4)CC3)cc1S2(=O)=O", "note": "(stereo not drawn)", "Potency": "active: 3.66 µM"}
{"compound": "CN(C)S(=O)(=O)c1cccc(NC(=O)COC(=O)c2cc3ccccc3oc2=O)c1", "Potency": "inactive"}
{"compound": "COc1ccccc1-n1nnnc1S(=O)(=O)Cc1ccc(Cl)cc1", "Potency": "active: 16.4 µM"}
{"compound": "O=C(CN1c2cccc3cccc(c23)S1(=O)=O)NC1CCCCC1", "Potency": "inactive"}
{"compound": "Cc1ccc2c(c1)[C@H]1[C@H](CO2)[C@H](c2ccccc2)[C@]2(C)C(=O)Nc3ccc(Cl)cc3C(=O)N12", "Potency": "inconclusive [activator, single point]"}
